PubChem BioAssay AID686979 (National Center for Advancing Translational Sciences (NCATS), 2013)
Screen size: about 420,000 compounds; about 50,000 (12%) were called active. Inconclusive results, whose numbers are uncertain, are shown with a selection of clear calls. The call rests on the fitted dose curve; in most records, active means well fitted inhibition curve with a large enough effect; inconclusive means small, poorly fitted or top-dose-only effect; inactive means flat fitted curve, though single readings scatter. Potencies of inconclusive entries are left out as doubtful fits.

assay: qHTS for Inhibitors of human tyrosyl-DNA phosphodiesterase 1 (TDP1): qHTS in cells in presence of CPT; conditions: chicken DT40 Tdp1-/-;hTDP1 cells + 20 nM CPT, ATP luminescence, 48 h; activity change, negative = growth inhibition: at 46.2 µM (top of the series) unless noted; further: nearly all actives have a fitted effect of over 55% in size
Procedure, shortened: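 Cell growth measured by CellTiter-Glo luminescence after a minimum 48 h, 37 C compound exposure with 20 nM CPT in Tdp1-knockout DT40 cells stably expressing hTDP1, seeded 400/well; qHTS titration format.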
On the % scale 0 is the no-effect control and ±100 the full control effect; potency means the concentration at half of the fitted maximal effect; tags describe the fitted curve by direction and shape.

SMILES	Potency	activity change, negative = growth inhibition
CCC1COCCS(=O)(=O)N1Cc1ccc(C)cc1 (stereo unspecified)	inconclusive [inhibitor, single point]	
COC(=O)c1ccc(C23CC4(C2)[C@H](CN(CC2CCCCC2)[C@@H]4c2ccccc2)C3c2ccc(C(F)(F)F)cc2)cc1 (stereo partly specified)	inconclusive [inhibitor, single point]	
O=C(CCC(=O)N1CCN(c2ccccn2)CC1)Nc1nnc(C2CCCCC2)s1	inactive	
COC(=O)CN1C(=O)[C@H]2[C@@H](c3ccc(C)o3)N3C(=O)CN(CC4CC4)C(=O)[C@@]3(C)[C@H]2C1=O	inactive	
Cc1ccc(S(=O)(=O)Nc2ccc3c(c2)nc(C)n3C)cc1	inconclusive [inhibitor, partial curve]	
COc1ccccc1CNC(=O)c1c(-c2ccccc2Cl)noc1C	inconclusive [inhibitor, single point]	
COC(=O)c1cc2occc2n1CC(=O)Nc1ccc(C)cc1Cl	inactive	
CCOc1ccc(-c2nc(CSCC(=O)NCc3ccc(C)cc3)c(C)o2)cc1	inconclusive [inhibitor, single point]	
O=C(Cc1ccc(Cl)cc1)NNC(=S)NC(=O)c1cccs1	inactive	
Cc1ccc(-c2csc(NC(=O)c3ccc([N+](=O)[O-])o3)n2)cc1	inconclusive [inhibitor, single point]	
COc1ccc(CCNc2nc3cc(OC)c(OC)cc3c3nc(-c4ccccc4)nn23)cc1OC	active: 5.8 µM	
Cn1c(SCc2ccc([N+](=O)[O-])cc2)nnc1-c1ccncc1	inactive	
NC(=O)c1nsc(C(=O)N(c2ccc(Cl)cc2)C(C(=O)NCC2CCCO2)c2cccs2)c1N (stereo unspecified)	inconclusive [inhibitor, single point]	
Cc1cc(=O)nc2c3ccccc3n(CC(=O)NCCCN3CCOCC3)n12	inconclusive [inhibitor, single point]	
O=[N+]([O-])c1ccc(Cl)c(S(=O)(=O)Nc2cccc(S(=O)(=O)NC3=NCCC3)c2)c1	inactive	
Cc1ccc(C)c(-n2nnc(-c3nc(-c4ccccc4C)no3)c2C)c1	active: 16.4 µM	
COc1ccc2c(c1)[nH]c1c(=O)n(/N=C/C3C(C)C=C(C)CC3C)c(=O)[nH]c12 (stereo unspecified)	inconclusive [inhibitor, partial curve]	
O=C1Nc2ccccc2OC1CC(=O)N1CCN(c2cccc(C(F)(F)F)c2)CC1 (stereo unspecified)	inconclusive [inhibitor, partial curve]	
C(=N\NC1=Nc2cccc3cccc1c23)/c1ccccc1	inactive	
O=C1NC(=Nc2ccccc2)S/C1=C\C=C\c1ccco1	active: 8.2 µM	
CCCCNC(=O)c1nc(-c2cccnc2OC)oc1-c1ccc(Cl)cc1	active: 16.4 µM	
N[C@@H](CCC(=O)N[C@@H](CS)C(=O)NCC(=O)O)C(=O)O	inconclusive [inhibitor, single point]	
CS(=O)(=O)N(CCc1ccccc1)CC(=O)N1CCc2ccccc2C1	inconclusive [inhibitor, single point]	

SMILES	Potency	activity change, negative = growth inhibition
COc1ccc(CC(=O)Nc2cc(S(=O)(=O)N3CCCCC3)ccc2C)cc1OC	inconclusive [inhibitor, partial curve]	
Nc1ccc(Oc2ccc3c(c2)C(=O)NC3=O)cc1	inactive	
CCN(CC)S(=O)(=O)c1cccc(NC(=O)C2SC(=Nc3ccc(C)cc3C)C(C(=O)NCC3CCCO3)=C2N)c1 (stereo unspecified)	inconclusive [inhibitor, single point]	
O=C(CCc1ccccc1)Nc1ccnn1C1CCN(Cc2ccc(OCCO)cc2)CC1	inactive	
COc1cccc(NC(=O)c2cc3c(-c4ccc(Cl)cc4)nn(C)c3s2)c1	inconclusive [inhibitor, single point]	
CC1=C(C(=O)O)N2C(=O)[C@@H](NC(=O)[C@H](N)C3=CCC=CC3)[C@H]2SC1	inconclusive [inhibitor, single point]	
Cc1cc(C(=O)Cn2cnc3cc([N+](=O)[O-])ccc3c2=O)c(C)n1CC1CCCO1 (stereo unspecified)	active: 14.6 µM	
CCCN1CCN(CCCNC(=O)C(CC)n2nc(C)n3c(cc4occc43)c2=O)CC1 (stereo unspecified)	inactive	
COc1ccc(C)cc1NCc1ccc(OC)c(C)c1OC	inconclusive [inhibitor, single point]	
CCOC(=O)c1nn(-c2cccc(OC)c2)c(-c2ccccc2)c1C(=O)c1ccccc1	inconclusive [inhibitor, single point]	
COC(=O)c1ccc(-n2nnnc2SCc2ccccc2OC)cc1	inactive	
O=C(Cc1ccc(Br)cc1)NCCc1ccc(Cl)cc1Cl	inactive	
Cc1ccc(C)c(NC(=S)N2CCC(c3nc4ccccc4s3)CC2)c1		inconclusive: -32.8% [inhibitor]
COc1ccccc1CCn1cnc(-c2ccc(Br)cc2)c1C(C)C	active: 14.6 µM	
COc1ccc(-c2ccc(C(=O)Nc3cccc(C(F)(F)F)c3)c3occc23)c(C)c1	active: 23.1 µM	
O=C(NCC(c1cccnc1)N1CCN(Cc2ccccc2)CC1)C(=O)Nc1cccc(Cl)c1 (stereo unspecified)	active: 14.6 µM	
COc1ccc(NC(=O)CN(C)C2CCCCC2)c([N+](=O)[O-])c1	inconclusive [inhibitor, single point]	
CC(=O)CCC1CC(c2ccc(Cl)cc2)=NO1 (stereo unspecified)	inactive	
O=C(c1ccc(S(=O)(=O)Nc2cccc(C(F)(F)F)c2)cc1)N1CCN(c2ccccc2O)CC1	inconclusive [inhibitor, single point]	
CN1C(=S)SC(C)(C)C1N(O)C(=O)Nc1ccc(Cl)cc1 (stereo unspecified)	inconclusive [inhibitor, single point]	
O=C(c1cc(C2CC2)nn1-c1ccccc1)N1CCN(S(=O)(=O)c2cccc(F)c2)CC1	inconclusive [inhibitor, partial curve]	
COCCNc1nc(-c2cccc(OC)c2)nc2ccccc12	active: 18.4 µM	
O=C1COc2ccc(C(=O)COC(=O)c3ccc([N+](=O)[O-])cc3Cl)cc2N1	inactive	
